# Some of the results follow.
# B1: GS7807H-bfa-490-18-490 (Bacteroides fragilis) (protein)
# chain: GNLEEMNIDPDNATQTHPKLLLTQICMNAFKRGTDGMYATKKVIQADGESADQYYKWTRGSFGYYDNLRNVQKMGEEAERVNAPVYTALTKFFRAYYFYELTLRFGDIPYSQALKGEKEEIYTPEYDAQEDVFAGILQELREADEILANDASVIDGDIIYNGNSTQWRKLINSFRLKVLMTLSNHTTVGNINIASEFKNIATNSPLMNSLADNGQLVYLDQQGNRYPQFNAQWSGYYMDDTFIQRMRERRDPRLFIFSAQTNKGKTEGKPIDDFSSYEGGDPAAPYSDAIIKVSEGTISPINDRFRTDPIVEPTMLMGYAELQQILAEAVVRGWISGNAQTYYEKGIRASFSFYETHAKDYAGYLNENAVAQYLKEPLVDFTQASGTEEQIERIIMQKYLVTFYQGNWDSFYEQLRTGYPDFRRPAGTEIPKRWMYPQGEYDNNGTNVETAITRQFGAGNDKINQATWWQKKS
# Assays:
# Experiment in all cases: glycan array binding signal (z-score within array); higher = stronger binding
# Settings in all cases: glycan notation: IUPAC condensed, linker removed
# [1] = biological target: Man(a1-3)[Man(a1-6)]Man(a1-6)[Man(a1-3)]Man
# Summary of the method: (§1)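 From the Consortium for Functional Glycomics database, 3228 arrays were curated, keeping only those whose protein sequence was available. Binding is given as a within-array Z-score averaged across arrays sharing a protein sequence and across linkers. Negative Z-scores can be read as non-binding.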
# [2] = biological target: Man(a1-3)[Man(a1-6)]Man(a1-6)[Man(a1-3)]Man(b1-4)GlcNAc(b1-4)GlcNAc
# Summary of the method: as §1
# [3] = biological target: Man(a1-3)[Man(a1-6)]Man(b1-4)GlcNAc(b1-4)GlcNAc
# Summary of the method: as §1
# [4] = biological target: Man(a1-3)[Man(a1-6)]Man(b1-4)GlcNAc(b1-4)[Fuc(a1-6)]GlcNAc
# Summary of the method: as §1
# Man(a1-6)Man = biological target: Man(a1-6)Man
# Summary of the method: as §1
# Man(b1-4)GlcNAc = biological target: Man(b1-4)GlcNAc
# Summary of the method: as §1
# MurNAc(b1-4)GlcNAc = biological target: MurNAc(b1-4)GlcNAc
# Summary of the method: as §1
# Neu5Ac(a2-3)Gal = biological target: Neu5Ac(a2-3)Gal
# Summary of the method: as §1
# [5] = biological target: Neu5Ac(a2-3)Gal(b1-3)GalNAc
# Summary of the method: as §1
# [6] = biological target: Neu5Ac(a2-3)Gal(b1-3)GalNAc(b1-3)Gal(a1-4)Gal(b1-4)Glc
# Summary of the method: as §1
# [7] = biological target: Neu5Ac(a2-3)Gal(b1-3)GalNAc(b1-4)[Neu5Ac(a2-3)]Gal(b1-4)Glc
# Summary of the method: as §1
# [8] = biological target: Neu5Ac(a2-3)Gal(b1-3)GalNAc(b1-4)[Neu5Ac(a2-8)Neu5Ac(a2-3)]Gal(b1-4)Glc
# Summary of the method: as §1
# [9] = biological target: Neu5Ac(a2-3)Gal(b1-3)GalNAc6S
# Summary of the method: as §1
# [10] = biological target: Neu5Ac(a2-3)Gal(b1-3)GlcNAc
# Summary of the method: as §1
# [11] = biological target: Neu5Ac(a2-3)Gal(b1-3)GlcNAc(b1-2)Man
# Summary of the method: as §1
# [12] = biological target: Neu5Ac(a2-3)Gal(b1-3)GlcNAc(b1-2)Man(a1-3)[GlcNAc(b1-4)][Neu5Ac(a2-3)Gal(b1-3)GlcNAc(b1-2)Man(a1-6)]Man(b1-4)GlcNAc(b1-4)GlcNAc
# Summary of the method: as §1
# [13] = biological target: Neu5Ac(a2-3)Gal(b1-3)GlcNAc(b1-2)Man(a1-3)[Neu5Ac(a2-3)Gal(b1-3)GlcNAc(b1-2)Man(a1-6)]Man(b1-4)GlcNAc(b1-4)GlcNAc
# Summary of the method: as §1
# [14] = biological target: Neu5Ac(a2-3)Gal(b1-3)GlcNAc(b1-3)Gal(b1-3)GlcNAc
# Summary of the method: as §1
# [15] = biological target: Neu5Ac(a2-3)Gal(b1-3)GlcNAc(b1-3)Gal(b1-4)GlcNAc
# Summary of the method: as §1
# [16] = biological target: Neu5Ac(a2-3)Gal(b1-3)GlcNAc(b1-3)GalNAc
# Summary of the method: as §1
# [17] = biological target: Neu5Ac(a2-3)Gal(b1-3)GlcNAc(b1-4)Gal(b1-4)Glc
# Summary of the method: as §1
# [18] = biological target: Neu5Ac(a2-3)Gal(b1-3)GlcNAc(b1-6)GalNAc
# Summary of the method: as §1
# [19] = biological target: Neu5Ac(a2-3)Gal(b1-3)GlcNAc6S
# Summary of the method: as §1
# [20] = biological target: Neu5Ac(a2-3)Gal(b1-3)[Fuc(a1-4)]GlcNAc
# Summary of the method: as §1
# [21] = biological target: Neu5Ac(a2-3)Gal(b1-3)[Fuc(a1-4)]GlcNAc(b1-3)Gal(b1-3)[Fuc(a1-4)]GlcNAc
# Summary of the method: as §1
# [22] = biological target: Neu5Ac(a2-3)Gal(b1-3)[Fuc(a1-4)]GlcNAc(b1-3)Gal(b1-4)[Fuc(a1-3)]GlcNAc
# Summary of the method: as §1
# [23] = biological target: Neu5Ac(a2-3)Gal(b1-3)[GlcNAc(b1-6)]GalNAc
# Summary of the method: as §1
# [24] = biological target: Neu5Ac(a2-3)Gal(b1-3)[Neu5Ac(a2-6)]GalNAc
# Summary of the method: as §1
# [25] = biological target: Neu5Ac(a2-3)Gal(b1-3)[Neu5Ac(a2-6)]GlcNAc(b1-3)[Fuc(a1-3)[Gal(b1-4)]GlcNAc(b1-6)]Gal(b1-4)Glc
# Summary of the method: as §1
# [26] = biological target: Neu5Ac(a2-3)Gal(b1-3)]Neu5Ac(a2-3)Gal(b1-4)]GlcNAc
# Summary of the method: as §1
# Neu5Ac(a2-3)Gal(b1-4)Glc = biological target: Neu5Ac(a2-3)Gal(b1-4)Glc
# Summary of the method: as §1
# [27] = biological target: Neu5Ac(a2-3)Gal(b1-4)GlcNAc
# Summary of the method: as §1
# [28] = biological target: Neu5Ac(a2-3)Gal(b1-4)GlcNAc(b1-2)Man
# Summary of the method: as §1
# [29] = biological target: Neu5Ac(a2-3)Gal(b1-4)GlcNAc(b1-2)Man(a1-3)[GlcNAc(b1-4)][Neu5Ac(a2-3)Gal(b1-4)GlcNAc(b1-2)Man(a1-6)]Man(b1-4)GlcNAc(b1-4)GlcNAc
# Summary of the method: as §1
# [30] = biological target: Neu5Ac(a2-3)Gal(b1-4)GlcNAc(b1-2)Man(a1-3)[Neu5Ac(a2-3)Gal(b1-4)GlcNAc(b1-2)Man(a1-6)]Man(b1-4)GlcNAc(b1-4)GlcNAc
# Summary of the method: as §1
# [31] = biological target: Neu5Ac(a2-3)Gal(b1-4)GlcNAc(b1-2)Man(a1-3)[Neu5Ac(a2-3)Gal(b1-4)GlcNAc(b1-2)Man(a1-6)]Man(b1-4)GlcNAc(b1-4)[Fuc(a1-6)]GlcNAc
# Summary of the method: as §1
# [32] = biological target: Neu5Ac(a2-3)Gal(b1-4)GlcNAc(b1-2)Man(a1-3)[Neu5Ac(a2-6)Gal(b1-4)GlcNAc(b1-2)Man(a1-6)]Man(b1-4)GlcNAc(b1-4)GlcNAc
# Summary of the method: as §1
# [33] = biological target: Neu5Ac(a2-3)Gal(b1-4)GlcNAc(b1-2)[Neu5Ac(a2-3)Gal(b1-4)GlcNAc(b1-4)]Man(a1-3)[GlcNAc(b1-4)][Neu5Ac(a2-3)Gal(b1-4)GlcNAc(b1-2)[Neu5Ac(a2-3)Gal(b1-4)GlcNAc(b1-6)]Man(a1-6)]Man(b1-4)GlcNAc(b1-4)GlcNAc
# Summary of the method: as §1
binder,measurement,setting,value
B1,glycan array binding signal (z-score),[1],0.534
same,glycan array binding signal (z-score),[2],-0.545
same,glycan array binding signal (z-score),[3],-0.36
same,glycan array binding signal (z-score),[4],0.267
same,glycan array binding signal (z-score),Man(a1-6)Man,0.122
same,glycan array binding signal (z-score),Man(b1-4)GlcNAc,0.132
same,glycan array binding signal (z-score),MurNAc(b1-4)GlcNAc,0.202
same,glycan array binding signal (z-score),Neu5Ac(a2-3)Gal,-0.022
same,glycan array binding signal (z-score),[5],-0.368
same,glycan array binding signal (z-score),[6],0.648
same,glycan array binding signal (z-score),[7],-0.178
same,glycan array binding signal (z-score),[8],0.236
same,glycan array binding signal (z-score),[9],-0.385
same,glycan array binding signal (z-score),[10],-0.033
same,glycan array binding signal (z-score),[11],-0.084
same,glycan array binding signal (z-score),[12],0.388
same,glycan array binding signal (z-score),[13],0.002
same,glycan array binding signal (z-score),[14],-0.111
same,glycan array binding signal (z-score),[15],-0.526
same,glycan array binding signal (z-score),[16],-0.06
same,glycan array binding signal (z-score),[17],-0.292
same,glycan array binding signal (z-score),[18],0.867
same,glycan array binding signal (z-score),[19],-0.419
same,glycan array binding signal (z-score),[20],0.052
same,glycan array binding signal (z-score),[21],1.31
same,glycan array binding signal (z-score),[22],-0.584
same,glycan array binding signal (z-score),[23],-0.662
same,glycan array binding signal (z-score),[24],-0.479
same,glycan array binding signal (z-score),[25],-0.176
same,glycan array binding signal (z-score),[26],0.031
same,glycan array binding signal (z-score),Neu5Ac(a2-3)Gal(b1-4)Glc,-0.346
same,glycan array binding signal (z-score),[27],0.231
same,glycan array binding signal (z-score),[28],-0.275
same,glycan array binding signal (z-score),[29],-0.65
same,glycan array binding signal (z-score),[30],-0.408
same,glycan array binding signal (z-score),[31],0.051
same,glycan array binding signal (z-score),[32],-0.298
same,glycan array binding signal (z-score),[33],-0.463

# Source: the supplement of paper PMC8728848
